In the supplement of paper PMC8728848:
Some of the results follow.

Tests used:
Assay in all cases: glycan array binding signal (z-score within array); higher = stronger binding
Details in all cases: glycan notation: IUPAC condensed, linker removed
[1] = target: Gal(b1-2)Gal
Procedure, shortened: (§1)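 The Consortium for Functional Glycomics database supplied 3228 glycan arrays, of which those lacking an available protein sequence were dropped. The binding signal, a within-array Z-score, was averaged across arrays of the same protein sequence and across linkers. Negative scores can be read as non-binding.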

[2] = target: Gal(b1-3)Gal
Procedure, shortened: as §1

[3] = target: Gal(b1-3)Gal(b1-4)GlcNAc
Procedure, shortened: as §1

[4] = target: Gal(b1-3)GalNAc
Procedure, shortened: as §1

[5] = target: Gal(b1-3)GalNAc(a1-3)[Fuc(a1-2)]Gal(b1-4)Glc
Procedure, shortened: as §1

[6] = target: Gal(b1-3)GalNAc(a1-3)[Fuc(a1-2)]Gal(b1-4)GlcNAc
Procedure, shortened: as §1

[7] = target: Gal(b1-3)GalNAc(b1-3)Gal
Procedure, shortened: as §1

[8] = target: Gal(b1-3)GalNAc(b1-3)Gal(a1-4)Gal(b1-4)Glc
Procedure, shortened: as §1

[9] = target: Gal(b1-3)GalNAc(b1-4)Gal(b1-4)Glc
Procedure, shortened: as §1

[10] = target: Gal(b1-3)GalNAc(b1-4)[Neu5Ac(a2-3)]Gal(b1-4)Glc
Procedure, shortened: as §1

[11] = target: Gal(b1-3)GlcNAc
Procedure, shortened: as §1

[12] = target: Gal(b1-3)GlcNAc(a1-3)Gal(b1-4)GlcNAc
Procedure, shortened: as §1

[13] = target: Gal(b1-3)GlcNAc(a1-6)Gal(b1-4)GlcNAc
Procedure, shortened: as §1

[14] = target: Gal(b1-3)GlcNAc(b1-2)Man
Procedure, shortened: as §1

[15] = target: Gal(b1-3)GlcNAc(b1-2)Man(a1-3)[Gal(b1-3)GlcNAc(b1-2)Man(a1-6)]Man(b1-4)GlcNAc(b1-4)GlcNAc
Procedure, shortened: as §1

[16] = target: Gal(b1-3)GlcNAc(b1-2)Man(a1-3)[Gal(b1-3)GlcNAc(b1-2)Man(a1-6)]Man(b1-4)GlcNAc(b1-4)[Fuc(a1-6)]GlcNAc
Procedure, shortened: as §1

[17] = target: Gal(b1-3)GlcNAc(b1-2)Man(a1-3)[GlcNAc(b1-4)][Gal(b1-3)GlcNAc(b1-2)Man(a1-6)]Man(b1-4)GlcNAc(b1-4)GlcNAc
Procedure, shortened: as §1

[18] = target: Gal(b1-3)GlcNAc(b1-2)[Gal(b1-3)GlcNAc(b1-6)]Man(a1-6)[Gal(b1-3)GlcNAc(b1-2)Man(a1-3)]Man(b1-4)GlcNAc(b1-4)GlcNAc
Procedure, shortened: as §1

[19] = target: Gal(b1-3)GlcNAc(b1-3)Gal(b1-3)GlcNAc
Procedure, shortened: as §1

[20] = target: Gal(b1-3)GlcNAc(b1-3)Gal(b1-4)Glc
Procedure, shortened: as §1

[21] = target: Gal(b1-3)GlcNAc(b1-3)Gal(b1-4)GlcNAc
Procedure, shortened: as §1

[22] = target: Gal(b1-3)GlcNAc(b1-3)Gal(b1-4)GlcNAc(b1-2)Man(a1-3)[Gal(b1-3)GlcNAc(b1-3)Gal(b1-4)GlcNAc(b1-2)Man(a1-6)]Man(b1-4)GlcNAc(b1-4)GlcNAc
Procedure, shortened: as §1

[23] = target: Gal(b1-3)GlcNAc(b1-3)Gal(b1-4)GlcNAc(b1-2)[Gal(b1-3)GlcNAc(b1-3)Gal(b1-4)GlcNAc(b1-6)]Man(a1-6)[Gal(b1-3)GlcNAc(b1-3)Gal(b1-4)GlcNAc(b1-2)Man(a1-3)]Man(b1-4)GlcNAc(b1-4)[Fuc(a1-6)]GlcNAc
Procedure, shortened: as §1

[24] = target: Gal(b1-3)GlcNAc(b1-3)Gal(b1-4)GlcNAc(b1-3)Gal(b1-4)GlcNAc(b1-2)[Gal(b1-3)GlcNAc(b1-3)Gal(b1-4)GlcNAc(b1-3)Gal(b1-4)GlcNAc(b1-6)]Man(a1-6)[Gal(b1-3)GlcNAc(b1-3)Gal(b1-4)GlcNAc(b1-3)Gal(b1-4)GlcNAc(b1-2)Man(a1-3)]Man(b1-4)GlcNAc(b1-4)[Fuc(a1-6)]GlcNAc
Procedure, shortened: as §1

[25] = target: Gal(b1-3)GlcNAc(b1-3)Gal(b1-4)GlcNAc(b1-6)[Gal(b1-3)GlcNAc(b1-3)]Gal(b1-4)Glc
Procedure, shortened: as §1

[26] = target: Gal(b1-3)GlcNAc(b1-3)Gal(b1-4)[Fuc(a1-3)]GlcNAc
Procedure, shortened: as §1

[27] = target: Gal(b1-3)GlcNAc(b1-3)Gal(b1-4)[Fuc(a1-3)]GlcNAc(b1-6)[Gal(b1-3)GlcNAc(b1-3)]Gal(b1-4)Glc
Procedure, shortened: as §1

[28] = target: Gal(b1-3)GlcNAc(b1-3)GalNAc
Procedure, shortened: as §1

[29] = target: Gal(b1-3)GlcNAc(b1-6)Gal(b1-4)GlcNAc
Procedure, shortened: as §1

[30] = target: Gal(b1-3)GlcNAc(b1-6)GalNAc
Procedure, shortened: as §1

[31] = target: Gal(b1-3)GlcNAc(b1-6)[Gal(b1-3)]GalNAc
Procedure, shortened: as §1

[32] = target: Gal(b1-3)GlcNAc6S
Procedure, shortened: as §1

[33] = target: Gal(b1-3)[Fuc(a1-4)]GlcNAc
Procedure, shortened: as §1

[34] = target: Gal(b1-3)[Fuc(a1-4)]GlcNAc(b1-2)Man
Procedure, shortened: as §1

[35] = target: Gal(b1-3)[Fuc(a1-4)]GlcNAc(b1-2)Man(a1-3)[Gal(b1-3)[Fuc(a1-4)]GlcNAc(b1-2)Man(a1-6)]Man(b1-4)GlcNAc(b1-4)[Fuc(a1-6)]GlcNAc
Procedure, shortened: as §1

[36] = target: Gal(b1-3)[Fuc(a1-4)]GlcNAc(b1-3)Gal(b1-3)[Fuc(a1-4)]GlcNAc
Procedure, shortened: as §1

[37] = target: Gal(b1-3)[Fuc(a1-4)]GlcNAc(b1-3)Gal(b1-4)[Fuc(a1-3)]GlcNAc
Procedure, shortened: as §1

[38] = target: Gal(b1-3)[Fuc(a1-4)]GlcNAc(b1-6)GalNAc
Procedure, shortened: as §1

[39] = target: Gal(b1-3)[GlcNAc(b1-6)]GalNAc
Procedure, shortened: as §1

[40] = target: Gal(b1-3)[Neu5Ac(a2-6)]GalNAc
Procedure, shortened: as §1

[41] = target: Gal(b1-3)[Neu5Ac(a2-6)]GlcNAc(b1-4)Gal(b1-4)Glc
Procedure, shortened: as §1

[42] = target: Gal(b1-3)[Neu5Ac(b2-6)]GalNAc
Procedure, shortened: as §1

[43] = target: Gal(b1-4)Gal
Procedure, shortened: as §1

[44] = target: Gal(b1-4)GalNAc(a1-3)[Fuc(a1-2)]Gal(b1-4)GlcNAc
Procedure, shortened: as §1

[45] = target: Gal(b1-4)GalNAc(b1-3)[Fuc(a1-2)]Gal(b1-4)GlcNAc
Procedure, shortened: as §1

B1: Pwp4 (Candida glabrata) (protein)
chain: MGSSHHHHHHSSGLVPRGSHMASVGNPITVSNVCSFPKNWHRTAGFRALTARLGIGIQSDSYKELLNYPGTFQLTTQQSSTTKPNFQISGLVGNIYGLTIVPSYLLVELTGYFVPPVSGEYTFSLEGSDDAAIIFIANPSTFKCGHVEDWPTAYDNDVTVTESIHATRTIYMIEGVAYPIRIAYYNGLSLGKLQASFTDPEGVKRVDWNGYIWRYDSCDTCSYV
glycan array binding signal (z-score) [1]: -0.49
glycan array binding signal (z-score) [2]: -0.411
glycan array binding signal (z-score) [3]: -0.378
glycan array binding signal (z-score) [4]: 0.272
glycan array binding signal (z-score) [5]: -0.297
glycan array binding signal (z-score) [6]: -0.354
glycan array binding signal (z-score) [7]: -0.51
glycan array binding signal (z-score) [8]: -0.54
glycan array binding signal (z-score) [9]: 0.554
glycan array binding signal (z-score) [10]: -0.574
glycan array binding signal (z-score) [11]: -0.537
glycan array binding signal (z-score) [12]: 0.711
glycan array binding signal (z-score) [13]: 2.97
glycan array binding signal (z-score) [14]: -0.297
glycan array binding signal (z-score) [15]: 0.367
glycan array binding signal (z-score) [16]: -0.447
glycan array binding signal (z-score) [17]: -0.351
glycan array binding signal (z-score) [18]: -0.162
glycan array binding signal (z-score) [19]: -0.51
glycan array binding signal (z-score) [20]: -0.337
glycan array binding signal (z-score) [21]: -0.356
glycan array binding signal (z-score) [22]: -0.165
glycan array binding signal (z-score) [23]: 5.18
glycan array binding signal (z-score) [24]: 2.9
glycan array binding signal (z-score) [25]: -0.293
glycan array binding signal (z-score) [26]: -0.333
glycan array binding signal (z-score) [27]: -0.578
glycan array binding signal (z-score) [28]: -0.673
glycan array binding signal (z-score) [29]: -0.372
glycan array binding signal (z-score) [30]: 0.773
glycan array binding signal (z-score) [31]: -0.485
glycan array binding signal (z-score) [32]: -0.565
glycan array binding signal (z-score) [33]: -0.533
glycan array binding signal (z-score) [34]: -0.225
glycan array binding signal (z-score) [35]: 0.258
glycan array binding signal (z-score) [36]: 0.756
glycan array binding signal (z-score) [37]: 0.126
glycan array binding signal (z-score) [38]: 2.48
glycan array binding signal (z-score) [39]: -0.506
glycan array binding signal (z-score) [40]: 0.185
glycan array binding signal (z-score) [41]: -0.479
glycan array binding signal (z-score) [42]: 0.685
glycan array binding signal (z-score) [43]: -0.601
glycan array binding signal (z-score) [44]: -0.29
glycan array binding signal (z-score) [45]: -0.019
